Drawing on the RNAGym collection of RNA variant scans (doi:10.7554/elife.90254), this text covers self-cleavage for 167 variants.

First the molecules themselves.
B1: LINE1-mini (parent)
chain: GGCAGAGCUCAACACAGCGUGGCAAAGUGGCUGUGGCUAGACUGCC

The source gives no read counts; variants with many changes may rest on few reads.

This series covers variants of B1. Put plainly: self-cleavage, relative activity (ratio to wild type); higher = more cleavage; in vitro, sequencing; the parent is a self-cleaving ribozyme.
G1U A4G A11U: the self-cleavage was 0.01.
To G1C U9G U20C belongs 0.
For the variant G1C C15A G19C, the self-cleavage worked out at 0.02.
On to G1C U9C C10U G36U C42G C45G, for which the self-cleavage stood at 0.01.
To G1C C23G G30C U32C G33C U43A belongs 0; to G1C G5C U9G G21U, 0.03; to G1U A4G C13A A25C A26G C37A U38A A39G, 0.05.
As for G1C C37U G40U, the self-cleavage was 0.
With G1C G19U G33C the figure was 0; with G1C G40A C46A, 0.
As for G1C G5U C23G G29U, the self-cleavage is 0.01.
Take G1C G5A A11C G17C G27C: the self-cleavage stood at 0.
As for G1C G7A C13A, the self-cleavage is 0.02.
As for G1C C15A A16U, the self-cleavage worked out at 0.01.
To G1U A11U C18U G21U G27U C37U C45A belongs 0; to G1U A4U C10U A16U U32G G36U, 0.05; to G1C G2C C8U C13G, 0.07.
On to G1C U9C U20C A25G A26C C31U U34C G40A, for which the self-cleavage is 0.07.
For the variant G1C C37G A41C U43G, the self-cleavage was found to be 0.
Regarding G1U A4G U28C C37U, the self-cleavage is 0.01.
With G1C G19A C31U U34G G36C, the self-cleavage turned out to be 0.
Consider G1C G2A G29C C46A, for which the self-cleavage was 0.13.
G1C G7U G22U C23A G33U U34G U38A A41G: the self-cleavage came out at 0.08.
With G1U A4U C37U A41C the figure was 0.03; with G1C U20A G22A A41G, 0.03; with G1U A4G G35U, 0.12.
To G1U A11U C15A C23A belongs 0.01; to G1C C15A C42G, 0; to G1C G7C U9A G27C G29A, 0.02.
On to G1C G2A C8G G30U, for which the self-cleavage worked out at 0.03.
In the case of G1C G19C G27A, the self-cleavage is 0.06.
For the variant G1U A4G U32C, the self-cleavage worked out at 0.11.
As to G1C G7C C8A, the self-cleavage is 0.02.
In the case of G1C G22C A39C C45A, the self-cleavage came to 0.01.
As to G1U A6U G7U C8U, the self-cleavage stood at 0.16.
With G1C U38G G44U, the self-cleavage is 0.02.
On to G1C C18A C23U G35U, for which the self-cleavage is 0.
With G1U A6G G44C the figure was 0.01; with G1C G7C C10G C13A A25C G36U C37A, 0.
Consider G1U A12C U28C G30C A39U, for which the self-cleavage was 0.
For G1U A11C G44A, the self-cleavage came to 0.02.
Regarding G1C G22U C45U, the self-cleavage came out at 0.15.
In the case of G1C U20G A26U G36A C37U, the self-cleavage was determined as 0.01.
To G1C G27A G33U belongs 0.01; to G1C C42U C46U, 0.02; to G1C G5C G30C U38G, 0.
Turning to G1C G19U G35C, the self-cleavage was found to be 0.02.
With G1U A11C G17U U20A, the self-cleavage was 0.01.
Turning to G1C G5U U32C, the self-cleavage came out at 0.01.
Take G1C U9A A14U U32A G40A: the self-cleavage came out at 0.01.
As for G1C G27C G36A, the self-cleavage worked out at 0.16.
With G1C G29C G33C G35U the figure was 0.01; with G1U A6C A11U, 0.01; with G1U A11U G36A A39G G44A, 0.
G1C C18U C31U A41G: the self-cleavage amounted to 0.01.
G1U A4U U34A G40A: the self-cleavage amounted to 0.09.
Take G1C G21U U28A A39G: the self-cleavage is 0.08.
With G1C G29U C46U, the self-cleavage is 0.17.
For G1C U20A G35A, the self-cleavage stood at 0.04.
To G1C C15A A41G C45G belongs 0.02; to G1U A4U C15U G35U, 0.22.
With G1C G2U A25U G36A G44C the figure was 0.08; with G1C U9A U28C C42G C45A, 0.01.
With G1C G19U G36A A39G the figure was 0.04; with G1U A6U C13U, 0.
As for G1C C15A G19C U20A A26U, the self-cleavage is 0.03.
For the variant G1C C42U U43C, the self-cleavage is 0.04.
Take G1C G19C U28A G40U: the self-cleavage was 0.
On to G1C G17C G35A C37A C46A, for which the self-cleavage amounted to 0.
Turning to G1C C15U G30U, the self-cleavage was 0.04.
To G1C C23U A39C belongs 0; to G1C G2U C8G G40U, 0.12.
Turning to G1C G5U C15A A16C G21C G30C, the self-cleavage worked out at 0.02.
As for G1C G19C G30C U32C U34A U38A, the self-cleavage came to 0.01.
In the case of G1C C18U G30A C46U, the self-cleavage is 0.17.
Consider G1C G7C G21C U32C, for which the self-cleavage stood at 0.02.
For the variant G1C G5C C8U, the self-cleavage is 0.04.
Regarding G1C U9A A26G, the self-cleavage was determined as 0.02.
To G1C G19A C23G U43C belongs 0.05; to G1C G30C C46A, 0.02; to G1C G7A C18A G35A G44U, 0.
In the case of G1C G2U C10U G29A A39C U43C, the self-cleavage turned out to be 0.
With G1C G5U C8U G22A G29U the figure was 0.01.
With G1C G5U C8G C13U G22U C31G G35C G40U, the self-cleavage was determined as 0.01.
On to G1U A12C G36C, for which the self-cleavage was found to be 0.01.
As for G1C G19A U43G C45A, the self-cleavage worked out at 0.02.
Turning to G1C G30U G44A, the self-cleavage was 0.02.
Consider G1C G5C C13U G33C, for which the self-cleavage was found to be 0.04.
Consider G1U A4C A26G, for which the self-cleavage was determined as 0.04.
Consider G1C C18A C42A, for which the self-cleavage was 0.
Consider G1C G5U C15U A26U G30C, for which the self-cleavage is 0.
For G1C G33U A39G, the self-cleavage was 0.01.
On to G1U A4G U32G A39G C45U C46U, for which the self-cleavage was determined as 0.04.
Turning to G1C G7C U20G A25U, the self-cleavage turned out to be 0.02.
To G1C C37A A39U belongs 0.06; to G1C G35U U38A C42G, 0; to G1U A4G G33A, 0.06.
As to G1C U34G G40C, the self-cleavage was 0.01.
As for G1U A11U C37G, the self-cleavage is 0.01.
On to G1C C37A G40U, for which the self-cleavage was determined as 0.05.
As for G1C C15A A25G G36A, the self-cleavage is 0.05.
Consider G1U A12G A16C C46U, for which the self-cleavage worked out at 0.14.
For the variant G1U A4G C46U, the self-cleavage came out at 0.04.
For the variant G1C G5C A39G C42U, the self-cleavage was 0.03.
On to G1U A11C C46U, for which the self-cleavage is 0.06.
On to G1C G2A C13U G35C C37U C46G, for which the self-cleavage turned out to be 0.02.
Consider G1U A4G C18G A25C, for which the self-cleavage amounted to 0.02.
Consider G1C G5C A6C G7U G17U, for which the self-cleavage turned out to be 0.05.
With G1C G2C C3G A11U the figure was 0.1.
Take G1U A6G C15U G27C C37U: the self-cleavage was found to be 0.07.
To G1C U34C U38C C46U belongs 0.04; to G1C G2A G33A G35U, 0.06; to G1C C18G C37A G40C, 0.01.
On to G1C C15U G17C G19A G35U G40A, for which the self-cleavage came to 0.02.
To G1C U9G G30A C31A belongs 0; to G1U A4C C8A C46G, 0.11; to G1C G30C G36A, 0.01.
To G1C G2C G17A G19A U20C belongs 0.
For the variant G1C C15A G27A U38A G40U A41G U43G, the self-cleavage came out at 0.01.
Regarding G1C U20C G30U, the self-cleavage is 0.12.
With G1C C31U C42U U43A the figure was 0; with G1C C18A G27A U28C G36U, 0.02.
Regarding G1C U9A C37U, the self-cleavage came to 0.04.
To G1U A12C G19A G40A belongs 0.01.
Regarding G1C C23A A41U, the self-cleavage is 0.17.
Consider G1C U9A C10A A16C C23U U28C U38C, for which the self-cleavage is 0.
In the case of G1C U28C C31G U38A, the self-cleavage came out at 0.01.
To G1C G22U C31G belongs 0.01; to G1C G5U U9G A24G G40U, 0.01.
For the variant G1C G2C G22C G27A G35C, the self-cleavage worked out at 0.03.
Regarding G1C C18A U20G C23U A26U, the self-cleavage is 0.01.
Regarding G1C U9A A11U, the self-cleavage was 0.02.
With G1C G7U A14C A16U C18A G33U G40U, the self-cleavage was found to be 0.03.
G1C G5U G19U A25G: the self-cleavage came to 0.06.
For the variant G1C C15U G30C U34C C37A, the self-cleavage turned out to be 0.04.
In the case of G1C G7U G17A G19C C23A U28G G35U U38A, the self-cleavage was 0.01.
To G1C G22U A39C U43C C45U belongs 0; to G1C G2A U28A G33A, 0.04.
Regarding G1C G2A C15U C42U, the self-cleavage is 0.13.
Turning to G1C G7C C23G U43C, the self-cleavage was 0.02.
In the case of G1C G22A C31G G33U, the self-cleavage worked out at 0.01.
As to G1U A6C A12U U20A G35U, the self-cleavage stood at 0.04.
Consider G1C G7A C10G G19C C45U, for which the self-cleavage amounted to 0.01.
To G1C G27U G29C C31G belongs 0.04; to G1C G17A G35A G36C, 0.02.
As to G1U A6C C10A A11C A16G, the self-cleavage is 0.01.
With G1U A4C U43C the figure was 0.06; with G1C G19A A39U G44U, 0.06.
As to G1U A4C C8A A12C C23A U28A, the self-cleavage came out at 0.02.
As for G1U A12C C13A C15U G21A A26G, the self-cleavage came out at 0.01.
As for G1C G7U G17A U20C G40C, the self-cleavage was determined as 0.03.
As for G1C U28A U43A, the self-cleavage worked out at 0.02.
Consider G1C U9A C15U C18A G22A, for which the self-cleavage is 0.05.
Consider G1C C15U C42A, for which the self-cleavage came out at 0.04.
Turning to G1C G7C G44A C45A, the self-cleavage came to 0.07.
To G1C G19A U38A belongs 0.07; to G1U A12G A26U G30U A39U, 0.02; to G1C G19C G21A C23A U28C, 0.09.
With G1C C23A U34A G44A C46U the figure was 0.05; with G1U A6C C10A U34G C46A, 0.01; with G1C G7A A14C C15G A16C U34A, 0.
To G1C G22A G44U belongs 0.06.
For the variant G1U A6G G29A, the self-cleavage was 0.06.
G1U A6G G29U: the self-cleavage stood at 0.06.
Turning to G1C U9C A26C G44C, the self-cleavage was 0.03.
G1C U9G U43C: the self-cleavage amounted to 0.01.
In the case of G1C C15A A39G, the self-cleavage turned out to be 0.02.
